Data on 22 molecules can be found in article PMC12136788.

The other results are listed elsewhere or left out.

First the molecules themselves.
B1: chr12:39756943:39756944:-_ENSG00000139116_ENST00000544797|hu_mus|hu_hu_hu_mus_False|28_48 (ssRNA)
RNA: GGGAGUUCUACAGUCCGACGAUCGGUUUGGCUGUUACCCCCAAGGGAAUCCUGCAAGAGUCUUGUCAGCUUAGAGUCUCUGUAAGGGACAUGUGUGGCUCUCUUGCUCUUGUCUCCCAAGGCGCUGAUUACAUUCCCAAGAGCCAACAGAGGAUUGAGCAUCA
B2: chr1:39494564:39494565:+_ENSG00000168653_ENST00000372967|hu_hu|hu_hu_hu_mus_True|78_108 (ssRNA)
RNA: GGGAGUUCUACAGUCCGACGAUCAUGUGCACGUCUCAUCGUUUUGUACCGAAGCAAACACUCUACGAAGUCAUCGAACUCUAUCUUGCACUCCUUUUUCGCCCGGGUCCCACCGAUCCCGUGUGCACACUCUAUCCACUCUUUCAACAGAGGAUUGAGCAUCA
B3: chr2:217001844:217001845:+_ENSG00000079246_ENST00000392132|hu_hu|hu_hu_hu_mus_False|38_58 (ssRNA)
RNA: GGGAGUUCUACAGUCCGACGAUCACCAACUUGAGGAUUAGAUCUUUUGUCAUAAGCAUAUCGGACGAUGGCGACCAUGUCUAAGUCAUCCAAAGCAUGAAUCAGGGAGGAAAGGGCAACAGCUGCCGCCUCAUCAUCCUUUGCCAACAGAGGAUUGAGCAUCA
B4: chr4:126724723:126724724:-_ENSMUSG00000043872_ENSMUST00000106102|mus_mus|FALSE|FALSE (ssRNA)
RNA: GGGAGUUCUACAGUCCGACGAUCGAUGUGCCUACGACACAAUACGUCAACUGGAAUACUUUAAAGGAGAAGAGUCAGGUAAGAGGGUCAAUCAGUCUCAAGAGCUUACAAAUUCAAGACUAGCCUAGGCUACAGAGCAAGAUCCAACAGAGGAUUGAGCAUCA
B5: chr4:140556289:140556290:+_ENSMUSG00000036622_ENSMUST00000037055|mus_mus|mus_mus_mus_hu_False|1_68 (ssRNA)
RNA: GGGAGUUCUACAGUCCGACGAUCGAUGGAGCUCACCAGGCCCCCUUUUGCCGUGCAGAACCCUGUGCGAGUCACCACUGCCAGGACGUGCGGUCCCACAUAGGCCCGGGCCUGCAAGAUGAGGGUCCCGCAGAAGAGGGUGUGCAACAGAGGAUUGAGCAUCA
B6: chr2:104630212:104630213:-_ENSMUSG00000074994_ENSMUST00000117237|mus_mus|FALSE|FALSE (ssRNA)
RNA: GGGAGUUCUACAGUCCGACGAUCUGUAGUGUUAAAAGAUGAAUCUUGAAGCACCAAAGGUGAGGUGGUCGCAAAGUUUCUAUUGCUAAAGGUAGAUGAAUGCUGAUAGGCAGACAAAGUUGGUGGUGGAAGUGUCCCAGUGGUCAACAGAGGAUUGAGCAUCA
B7: chr7:129668796:129668797:-_ENSG00000091732_ENST00000358303|hu_mus|FALSE|FALSE (ssRNA)
RNA: GGGAGUUCUACAGUCCGACGAUCAGAAGGAAGUUGGAGGUCCAAAUGGCAAAGGCUUUGAAACCGGUCCAGGAACUCACUGAUGAGAACAGCAGGCUCACCCAAUGGCAACAUCCCAAAUCUAUCUGGAGAGGGGCUGUCUGGCAACAGAGGAUUGAGCAUCA
B8: chr5:44151052:44151053:-_ENSMUSG00000039753_ENSMUST00000047857|mus_mus|FALSE|FALSE (ssRNA)
RNA: GGGAGUUCUACAGUCCGACGAUCGUCGGUCUGGGUAAGAUCCAGAUGUUCCAGGUUAGGACAAAGCUCUAAAAUCUGCCUAACCAUUUUGCUGGAGACUGCAGAGCUGUACGCUAACACUAAAGUUUUUACAGAGGUACCAACCAACAGAGGAUUGAGCAUCA
B9: chr1:244855233:244855234:+_ENSG00000121644_ENST00000302550|hu_hu|FALSE|FALSE (ssRNA)
RNA: GGGAGUUCUACAGUCCGACGAUCCAUUAAAUGAUAAGCAUUGCCUUUGUAUUCUUUUCCCAGUUCUUCUACAAUUUUUUCUAUAUCAUCUUCUAGGAAGUCCGUGCUCCCUAAAACAACAGCUUCUUUAAAUUUAAAUGUUUCCAACAGAGGAUUGAGCAUCA
B10: 84647941_84648061_2016_CDS_ENSMUSG00000020530_ENSMUST00000108081|mouse|control|control (ssRNA)
RNA: GGGAGUUCUACAGUCCGACGAUCCAAUGGCUGCCCACCCUUCUCAGUGCUGCAACAACUCUCAGGAUGUGCAUCUUUGGUCUUGUCACGGUGAAACACUGUGUGCAUAGUGUUUCCUGAGGUCUCUCGAUUACCUGGAUCUGUCAACAGAGGAUUGAGCAUCA
B11: chr18:24050344:24050345:+_ENSMUSG00000024277_ENSMUST00000025127|mus_hu|FALSE|FALSE (ssRNA)
RNA: GGGAGUUCUACAGUCCGACGAUCUGGAGCUCAGGGCUGCACACCUGAAGUUACCCUUUAGUAGGGGUCCCCUAGAGUGAAUGACAGUUUUGUGGCUGAAACCUACACAAAGAGGAAGAGGAAUGAGGCAGGAAGACCCGUACCCAACAGAGGAUUGAGCAUCA
B12: chr14:102550858:102550859:-_ENSG00000080824_ENST00000216281|hu_mus|FALSE|FALSE (ssRNA)
RNA: GGGAGUUCUACAGUCCGACGAUCGUUGUUCUUUUUCUUUCUGUUUUCAAACAGAUCAAAAGGAGCGCGUCUUGGGACAAAAAGAAGGGCCCGGAAUUCUAAUUGUCCUUCAACAGAAAAAUGCUUUACUGCCAAGUGUUCUUCCAACAGAGGAUUGAGCAUCA
B13: chrX:12734859:12734860:+_ENSMUSG00000031010_ENSMUST00000089302|mus_mus|FALSE|FALSE (ssRNA)
RNA: GGGAGUUCUACAGUCCGACGAUCAUCACUGGCAGAUCCUCGGACUAUUUUCUUUGUGUGAAAUCCUGUAGUAAAAAGGAACCUAGCAGCAAGCUGAAUACUAAUCAUAGUGAUUUCUUCUGCUUCAGGAGACAGGUGAUCUUGCAACAGAGGAUUGAGCAUCA
B14: chr5:179004091:179004092:+_ENSG00000176783_ENST00000393438|hu_hu|FALSE|FALSE (ssRNA)
RNA: GGGAGUUCUACAGUCCGACGAUCUUCAUGCUCCUUGCCACCAUCAAGAUCCUGCACAUCCUUAAGGUAGAGGGAAAAAUCUAUUACUCCAACCUGAGAAUCCAAGUCUUCUCCUUUCAAGCAGAGAUUGGCAUCGAGAACAUUCAACAGAGGAUUGAGCAUCA
B15: chr2:216981417:216981418:+_ENSG00000079246_ENST00000392132|hu_hu|hu_hu_hu_mus_True|28_58 (ssRNA)
RNA: GGGAGUUCUACAGUCCGACGAUCCUGAUACUGGUCCUUGCCAGCAAGGGCAUUAUCAGUGCCAUCUGUGCCAUAGAGGACUAAAGCAAUCUCAUCUUUGCUCUCCGCAAACACCUGUCGUUGGACAAACAUAGUCAUCACUUUCAACAGAGGAUUGAGCAUCA
B16: chr10:1038518:1038519:+_ENSG00000107937_ENST00000545048|hu_hu|hu_hu_hu_mus_False|1_28 (ssRNA)
RNA: GGGAGUUCUACAGUCCGACGAUCCAGUCUGUCAUGGUAAUUCUGUUGAGUAAAUUUGACUUUUCUCAUAUAAAAAUGUCGAAUCCGAUGAAUUUGAUAAUGUUUAUGAAUAACGGUUGGAGUCUUUCGUUGAGUCUUCGACAACAACAGAGGAUUGAGCAUCA
B17: chr1:54531653:54531654:-_ENSMUSG00000073678_ENSMUST00000097739|mus_hu|motif|central (ssRNA)
RNA: GGGAGUUCUACAGUCCGACGAUCACACAAAAGAUGAACUCAUUUCAAAGAACAAUGUAAACUGAACUUAGGCCUUGUACACGGUCUUUUUACUAAUAACACCUAUGGUCCCCAUUAGAAUAAACUGUCACUAAAUCAAGGCCACAACAGAGGAUUGAGCAUCA
B18: chrX:71549762:71549763:+_ENSMUSG00000019087_ENSMUST00000019231|mus_mus|mus_mus_mus_hu_False|88_108 (ssRNA)
RNA: GGGAGUUCUACAGUCCGACGAUCAAAGUGUACCACUUCUUAUUGUUACAUCACCCCCACCAGAAAACGAUAACGACAGCCAAGCAGGACAGACAGUUAAGUAGUACUUCCACACUCCCAAACUCAGGGAGCCCUAUAACCUUACAACAGAGGAUUGAGCAUCA
B19: chr16:75327710:75327711:-_ENSG00000153774_ENST00000283882|hu_mus|FALSE|FALSE (ssRNA)
RNA: GGGAGUUCUACAGUCCGACGAUCUUUAAAAGACAAAUUUUAAAAAGGAAAAUGAAUGAAGCCAGGUGAAAUUAACAUACAUUAAACAAACUGCAACGUAGAAAAAGGGACUUGCUGGAAACAUGAUGAGGAACACUGGAAGUACAACAGAGGAUUGAGCAUCA
B20: 36892310_36892430_2491_3pUTR_ENSG00000198663_ENST00000480824|human|control|control (ssRNA)
RNA: GGGAGUUCUACAGUCCGACGAUCAUAAAAGGAACAGGAAAAGAACAUCCUUAUUUACACCAUUUGAUUGCUACCUACUAAAAGCACUUAGGAGAAAACAAUGCACAUAGUGAAUCAUCCAAUCAGAAACACACAGCUUUAUAUCAACAGAGGAUUGAGCAUCA
B21: chr7:44244176:44244177:+_ENSG00000106636_ENST00000223369|hu_mus|hu_hu_hu_mus_False|18_78 (ssRNA)
RNA: GGGAGUUCUACAGUCCGACGAUCACUGUCGCUCCGGACGUAGACAUGGCAAAGAUAGUCUUGUUCUUUGACAGAAGCUCUGCUGCCUUUCCCCGAGCGUUCCACAAUCAGUUGACUCGUGAAGGUCAUGAAUUCCUGCACACUCAACAGAGGAUUGAGCAUCA
B22: chr16:29649037:29649038:+_ENSMUSG00000038084_ENSMUST00000160597|mus_hu|motif|central (ssRNA)
RNA: GGGAGUUCUACAGUCCGACGAUCUUUAAUUUAUUUCUCCUGAUGAAGAGCUUCAAUGAAAGCAUCAAGUUUUUCUUGAAUUUCUCGGACUUUCUUGAGGUCUUCCGCCAGUUGAACGCGUUUACCAGUAAGCAAUUUAAUCUUCAACAGAGGAUUGAGCAUCA

The target of the experiment is T1, UNK ZnF1-3 (human, UniProt Q9C0B0 31-174).
T1 sequence: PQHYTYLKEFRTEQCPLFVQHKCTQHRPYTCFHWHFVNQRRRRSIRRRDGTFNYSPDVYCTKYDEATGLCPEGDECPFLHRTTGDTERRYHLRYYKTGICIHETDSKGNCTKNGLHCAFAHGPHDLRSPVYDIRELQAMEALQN
In words: nsRBNS (natural sequence RNA bind-n-seq); RBNS binding buffer (assumed for nsRBNS): 25 mM Tris pH 7.5, 150 mM KCl, 3 mM MgCl2, 0.01% Triton X-100, 500 ug/ml BSA, 20 U/ml SUPERase-In, 4 C; UNK is unkempt and MSI1 is Musashi-1; names of the RNAs are library labels; protein concentration not given here; high values mean tight binding.
In the case of B1, the binding signal came to 0.728 enrichment R.
B2 had a binding signal of 0.655 enrichment R.
With B3 the figure was 1.62 enrichment R; with B4, 1.62 enrichment R.
As to B5, the binding signal came to 0.432 enrichment R.
As for B6, the binding signal turned out to be 1.61 enrichment R.
Take B7: the binding signal was 1.25 enrichment R.
With B8 the figure was 1.13 enrichment R; with B9, 0.838 enrichment R; with B10, 0.842 enrichment R.
As for B11, the binding signal was determined as 2.03 enrichment R.
Next, B12: 1.19 enrichment R.
In turn, B13 gave a binding signal of 1.28 enrichment R.
With B14, the binding signal came to 1.93 enrichment R.
With B15 the figure was 0.775 enrichment R; with B16, 0.798 enrichment R; with B17, 1.05 enrichment R.
With B18 the figure was 1.79 enrichment R; with B19, 2.74 enrichment R; with B20, 1.05 enrichment R.
With B21 the figure was 0.716 enrichment R.
The molecule B22 showed a binding signal of 0.671 enrichment R.
